This is one part of the list.
Key:
Test in all cases: glycan array binding signal (z-score within array); higher = stronger binding
Conditions in all cases: glycan notation: IUPAC condensed, linker removed
[1] = target: Fuc(a1-3)[Gal(b1-4)]GlcNAc(b1-4)Gal(b1-4)[Fuc(a1-3)]GlcNAc(b1-4)Gal(b1-4)[Fuc(a1-3)]GlcNAc
Outline: (§1)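 Glycan array binding is given as a within-array Z-score, which can be read as non-binding when negative. The arrays, 3228 of them, came from the Consortium for Functional Glycomics database and were retained only where the protein sequence was available. Z-scores were averaged across arrays of the same protein sequence at different concentrations or buffers and across linkers.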

[2] = target: Fuc(a1-3)[Gal3S(b1-4)]GlcNAc
Outline: as §1

[3] = target: Fuc(a1-3)[GalNAc(b1-4)]Gal(b1-4)GlcNAc
Outline: as §1

Fuc(a1-4)GlcNAc = target: Fuc(a1-4)GlcNAc
Outline: as §1

Fuc(b1-3)GlcNAc = target: Fuc(b1-3)GlcNAc
Outline: as §1

Gal(a1-2)Gal = target: Gal(a1-2)Gal
Outline: as §1

Gal(a1-3)Gal = target: Gal(a1-3)Gal
Outline: as §1

Gal(a1-3)Gal(b1-3)Glc = target: Gal(a1-3)Gal(b1-3)Glc
Outline: as §1

Gal(a1-3)Gal(b1-3)GlcNAc = target: Gal(a1-3)Gal(b1-3)GlcNAc
Outline: as §1

Gal(a1-3)Gal(b1-4)GlcNAc = target: Gal(a1-3)Gal(b1-4)GlcNAc
Outline: as §1

[4] = target: Gal(a1-3)Gal(b1-4)[Fuc(a1-3)]GalNAc
Outline: as §1

Gal(a1-3)GlcNAc = target: Gal(a1-3)GlcNAc
Outline: as §1

[5] = target: Gal(a1-3)[Gal(a1-4)]Gal(b1-4)GlcNAc
Outline: as §1

Gal(a1-4)Gal(b1-4)Gal = target: Gal(a1-4)Gal(b1-4)Gal
Outline: as §1

Gal(a1-4)Gal(b1-4)GalNAc = target: Gal(a1-4)Gal(b1-4)GalNAc
Outline: as §1

Gal(a1-4)GlcNAc = target: Gal(a1-4)GlcNAc
Outline: as §1

Gal(a1-6)Glc = target: Gal(a1-6)Glc
Outline: as §1

Gal(b1-2)Gal = target: Gal(b1-2)Gal
Outline: as §1

Gal(b1-3)Gal = target: Gal(b1-3)Gal
Outline: as §1

Gal(b1-3)GalNAc = target: Gal(b1-3)GalNAc
Outline: as §1

[6] = target: Gal(b1-3)GalNAc(b1-3)Gal(a1-4)Gal(b1-4)Glc
Outline: as §1

[7] = target: Gal(b1-3)GalNAc(b1-3)Gal(b1-4)Glc
Outline: as §1

[8] = target: Gal(b1-3)GalNAc(b1-3)Gal(b1-4)GlcNAc
Outline: as §1

[9] = target: Gal(b1-3)GalNAc(b1-4)Gal(b1-4)Glc
Outline: as §1

[10] = target: Gal(b1-3)GalNAc(b1-4)[Neu5Ac(a2-3)]Gal(b1-4)Glc
Outline: as §1

[11] = target: Gal(b1-3)[Fuc(a1-4)]GlcNAc
Outline: as §1

[12] = target: Gal(b1-3)[Fuc(a1-4)]GlcNAc(b1-3)Gal(b1-4)GlcNAc
Outline: as §1

[13] = target: Gal(b1-3)[Fuc(a1-4)]GlcNAc(b1-3)Gal(b1-4)[Fuc(a1-3)]GlcNAc
Outline: as §1

[14] = target: Gal(b1-3)[GlcNAc(b1-6)]GalNAc
Outline: as §1

[15] = target: Gal(b1-3)[GlcNAc(b1-6)]GlcNAc
Outline: as §1

B1: Crocus Lectin (Crocus vernus), Q9FVA1 (protein)
chain: MAKSLVLSSLLLALLLAAPLASLADNNVLLTGDVLHTDNQLSFESAAFVMQGDCNLVLYNEAGGFQSNTHGRGVGCTLRLNNFGQLEIHSANSNTPVWVSLRNGIPVRGDYAAVLGPDQHVTIYGPAIWSTPAPNRHERGATVSNIPRVRNVLFSSQVMSDNAQLATRDYSLVMRDDCNLALTKGSKTNIVWESGTSGRGQHCFMRLGHTGLIEISDDRLNTVWRSNTVGQEGDYVLILQINGQAVVYGPAVWSTASPARGGASAAL
[1]
  glycan array binding signal (z-score): -0.186
[2]
  glycan array binding signal (z-score): -0.187
[3]
  glycan array binding signal (z-score): -0.187
Fuc(a1-4)GlcNAc
  glycan array binding signal (z-score): -0.194
Fuc(b1-3)GlcNAc
  glycan array binding signal (z-score): -0.163
Gal(a1-2)Gal
  glycan array binding signal (z-score): -0.174
Gal(a1-3)Gal
  glycan array binding signal (z-score): -0.177
Gal(a1-3)Gal(b1-3)Glc
  glycan array binding signal (z-score): -0.169
Gal(a1-3)Gal(b1-3)GlcNAc
  glycan array binding signal (z-score): -0.177
Gal(a1-3)Gal(b1-4)GlcNAc
  glycan array binding signal (z-score): -0.172
[4]
  glycan array binding signal (z-score): -0.181
Gal(a1-3)GlcNAc
  glycan array binding signal (z-score): -0.181
[5]
  glycan array binding signal (z-score): -0.177
Gal(a1-4)Gal(b1-4)Gal
  glycan array binding signal (z-score): -0.177
Gal(a1-4)Gal(b1-4)GalNAc
  glycan array binding signal (z-score): -0.185
Gal(a1-4)GlcNAc
  glycan array binding signal (z-score): -0.183
Gal(a1-6)Glc
  glycan array binding signal (z-score): -0.179
Gal(b1-2)Gal
  glycan array binding signal (z-score): -0.167
Gal(b1-3)Gal
  glycan array binding signal (z-score): -0.192
Gal(b1-3)GalNAc
  glycan array binding signal (z-score): 0.009
[6]
  glycan array binding signal (z-score): -0.181
[7]
  glycan array binding signal (z-score): -0.192
[8]
  glycan array binding signal (z-score): -0.147
[9]
  glycan array binding signal (z-score): 0.044
[10]
  glycan array binding signal (z-score): 0.027
[11]
  glycan array binding signal (z-score): -0.136
[12]
  glycan array binding signal (z-score): -0.19
[13]
  glycan array binding signal (z-score): -0.071
[14]
  glycan array binding signal (z-score): -0.197
[15]
  glycan array binding signal (z-score): -0.143

From the supplement of paper PMC8728848
